Measured values reported in article PMC4336329 (PLoS ONE, 2015).
Out of some 310,000 compounds screened, about 14,000 (4.5%) showed an effect of 50% or more. The effect is printed as a negative number. The list shows a part of the results.
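Further: peak tail current of the secondary pulse compared with the same well before compound.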

Each molecule was assayed against human ether-à-go-go-related gene (hERG) potassium channel (human, UniProt Q12809) (assay: primary screen, population patch clamp on CHO cells stably expressing hERG).
human ether-à-go-go-related gene (hERG) potassium channel, sequence (Q12809 whole entry, looked up): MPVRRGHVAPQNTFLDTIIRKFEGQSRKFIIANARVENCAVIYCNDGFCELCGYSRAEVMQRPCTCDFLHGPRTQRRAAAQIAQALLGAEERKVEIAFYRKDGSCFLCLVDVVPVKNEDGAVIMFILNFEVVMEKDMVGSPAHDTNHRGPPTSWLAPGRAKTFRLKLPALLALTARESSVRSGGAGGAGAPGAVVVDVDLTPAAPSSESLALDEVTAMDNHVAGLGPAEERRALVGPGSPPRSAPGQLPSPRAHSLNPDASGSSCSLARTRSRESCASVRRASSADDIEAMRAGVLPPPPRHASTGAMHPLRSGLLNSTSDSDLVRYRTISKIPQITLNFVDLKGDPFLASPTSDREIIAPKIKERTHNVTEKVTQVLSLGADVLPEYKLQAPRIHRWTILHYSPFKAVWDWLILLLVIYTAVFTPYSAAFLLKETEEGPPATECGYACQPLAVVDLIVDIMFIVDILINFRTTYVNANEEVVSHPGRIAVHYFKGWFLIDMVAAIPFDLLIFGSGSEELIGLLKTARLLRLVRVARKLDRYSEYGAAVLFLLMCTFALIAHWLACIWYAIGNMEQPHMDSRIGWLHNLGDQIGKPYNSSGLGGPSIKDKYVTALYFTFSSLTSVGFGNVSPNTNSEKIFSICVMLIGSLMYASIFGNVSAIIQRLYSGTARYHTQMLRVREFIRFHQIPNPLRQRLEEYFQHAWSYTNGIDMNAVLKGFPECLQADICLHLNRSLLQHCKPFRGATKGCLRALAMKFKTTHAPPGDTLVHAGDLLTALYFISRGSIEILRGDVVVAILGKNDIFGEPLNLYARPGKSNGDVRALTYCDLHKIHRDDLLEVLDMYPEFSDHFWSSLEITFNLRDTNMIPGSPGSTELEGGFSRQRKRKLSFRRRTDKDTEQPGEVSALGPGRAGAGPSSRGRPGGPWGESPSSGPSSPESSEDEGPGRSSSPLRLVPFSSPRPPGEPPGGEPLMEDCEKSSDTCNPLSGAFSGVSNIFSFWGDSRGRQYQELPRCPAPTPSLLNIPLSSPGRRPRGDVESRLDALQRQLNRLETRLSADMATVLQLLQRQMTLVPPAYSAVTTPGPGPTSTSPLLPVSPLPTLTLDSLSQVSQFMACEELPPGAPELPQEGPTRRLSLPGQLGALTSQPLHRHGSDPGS
For c1cncc(-c2nc(NCCCN3CCOCC3)c3c4c(sc3n2)CCC4)c1, the “hERG current change (%, negative = inhibition) at 10uM” value was 10.1%.
With COc1ccc(-c2cc(C(=O)Nc3ccc(O)cc3)c3ccccc3n2)cc1OC the “hERG current change (%, negative = inhibition) at 10uM” value was 0.848%.
With CCCCCCSc1cccc(-c2nc3ccc(C)cn3c2NC2CCCCC2)c1.O=C(O)C(F)(F)F the “hERG current change (%, negative = inhibition) at 10uM” value was 4.18%.
For [N-]=[N+]=NC1c2ccccc2C(=O)N1Cc1ccccc1 (centres unmarked), the “hERG current change (%, negative = inhibition) at 10uM” value was 10%.
In the case of Cc1cc(N2CCOCC2)nc(C(C)C)n1, the “hERG current change (%, negative = inhibition) at 10uM” value is reported as 6.61%.
With COc1ccc(Cn2c(=S)[nH]c3cc(C(=O)NCCCN4CCOCC4)ccc3c2=O)cc1 the “hERG current change (%, negative = inhibition) at 10uM” value was 24.1%.
With C=CCn1c(NC(=O)c2ccc(Br)o2)c(C(=O)OCC)sc1=S the “hERG current change (%, negative = inhibition) at 10uM” value was 37%.
With NC(=O)c1ccc(NC(=O)CSc2nnc(-c3ccncc3)n2Cc2ccco2)cc1 the “hERG current change (%, negative = inhibition) at 10uM” value was 2.42%.
NS(=O)(=O)c1ccc(NC(=O)CN2CCN(S(=O)(=O)/C=C/c3ccccc3)CC2)cc1 was tested, and the “hERG current change (%, negative = inhibition) at 10uM” value was -9.04%.
In the case of O=C(COC(=O)c1cccc(Cl)c1)Nc1cc(Cl)ccc1Oc1ccccc1, the “hERG current change (%, negative = inhibition) at 10uM” value is reported as 15.1%.
C=CCOc1ccc(C2NC(=O)NC(C)=C2C(=O)OC)cc1 (centres unmarked) was tested, and the “hERG current change (%, negative = inhibition) at 10uM” value was -17%.
In the case of O=C(O)C1CCCN(S(=O)(=O)c2cccs2)C1 (centres unmarked), the “hERG current change (%, negative = inhibition) at 10uM” value is reported as 4.67%.
In the case of COCc1c(C(=O)Nc2nc(C)cs2)oc2ccccc12, the “hERG current change (%, negative = inhibition) at 10uM” value is reported as -2.57%.
In the case of CCCCC(O)(CCCC)C(=O)NN(C(=O)c1cccnc1Cl)c1ccccc1, the “hERG current change (%, negative = inhibition) at 10uM” value is reported as -3.75%.
In the case of CCc1cc(=O)oc2cc(C)cc(OC(C)C(=O)NCCCn3ccnc3)c12 (centres unmarked), the “hERG current change (%, negative = inhibition) at 10uM” value is reported as -30.9%.
In the case of O=C(CCCN1C(=O)C(c2ccccc2)Oc2cccnc21)NCc1ccccc1Cl (centres unmarked), the “hERG current change (%, negative = inhibition) at 10uM” value is reported as 46.5%.
In the case of COC(=O)c1ccnc(/C=N/O)c1, the “hERG current change (%, negative = inhibition) at 10uM” value is reported as 10.7%.
In the case of C[C@H](NC(=O)c1nc[nH]c1C(=O)N[C@@H](CCCCNC(=O)OC(C)(C)C)C(=O)OC(C)(C)C)C(=O)OCc1ccccc1, the “hERG current change (%, negative = inhibition) at 10uM” value is reported as 0.44%.
COc1ccc([C@H]2CC(=O)C=C(c3ccc(-c4ccccc4)cc3)C2)cc1OC was tested, and the “hERG current change (%, negative = inhibition) at 10uM” value was 13.5%.
For CC(C)(C)C(=O)COC(=O)c1ccc(O)cc1, the “hERG current change (%, negative = inhibition) at 10uM” value was -0.497%.
In the case of Cc1cccc(CS(=O)(=O)c2ncc(Cl)c(C(=O)Nc3ccc(F)cc3)n2)c1, the “hERG current change (%, negative = inhibition) at 10uM” value is reported as 21.6%.
In the case of CC12CC[C@H]3[C@@H](CCC4(O)C[C@H](O)CCC34/C=N/NC(=O)c3ccccc3O)C1(O)CCC2C1=CC(=O)OC1 (some centres unmarked), the “hERG current change (%, negative = inhibition) at 10uM” value is reported as 4.9%.
COC(=O)C1=C(c2ccc(-c3ccccc3)c(F)c2)C[C@@H]2CC[C@H]1N2C(=O)NC1Cc2ccccc2C1 was tested, and the “hERG current change (%, negative = inhibition) at 10uM” value was 23.2%.
